Reference: patent publication US20230021880A1, “Cladribine regimen for treating progressive forms of Multiple Sclerosis” (Merck Patent GmbH, priority 2017, published 2023)

Columns and labels:
[1] = tested on: patients with SPMS; assay: ONWARD study: Cladribine tablets 3.5 mg/kg added on to IFN-β, SPMS patients; type: in vivo, human
Text: (§1) A supportive study in patients treated with Cladribine as an add-on to interferon-beta vs. placebo+interferon-beta also included a limited number of patients with secondary progressive MS (26 patients). […] There was no difference in annualized relapse rate between patients with relapsing-remitting MS and patients with secondary progressive MS with relapses.
Patients aged 18-65 years were eligible to enter the ONWARD study if they fulfilled the following criteria. • a diagnosis of RRMS or SPMS with relapses (2005 McDonald criteria) • treatment with IFN-β for ≥48 consecutive weeks before screening, with ≥1 MS relapse during that period • clinical stability (other than relapses) during the 28 days before screening • an Expanded Disability Status Scale. (EDSS) score of 1.0-5.5 • normal hematological parameters within 28 days of baseline (Day 1 of randomization), defined as: platelets, 140-450×10^3/μL; absolute neutrophil count, 2.03-8.36×10^3/μL, absolute lymphocyte count, 1.02-3.36×10^3/μL; white blood cell count, 4.1-123×10^3/μL; haemoglobin, 11.6-16.2 g/dL • Switching from one IFN-β therapy to another was permitted in the 48 weeks before screening if the patient had been on a stable regimen of the current IFN-β≥3 months prior to screening. • Patients were excluded if they bad an infectious or immune-compromising disease, had been previously treated with an immunosuppressive or cytotoxic therapy, or if they were pregnant, breastfeeding or refused to use contraception during the study. • In the study, a dose of Cladribine tablets of 3.5 mg/kg, added to existing IFN-β therapy, were applied. • All analyses were post-hoc and not pre-specified, no multiplicity adjustments were done to the resulting p values. All comparisons where the p value was less than 0.05 by statistical testing should be regarded as nominally significant.
The ONWARD study confirmed the safety and tolerability of Cladribine tablets (3.5 mg/kg) administered as an add on to interferon-β (IFN-β) therapy as a primary endpoint in patients who experienced at least, one relapse on IFN-β. […]

[2] = tested on: patients with RRMS; assay: ONWARD study: Cladribine tablets 3.5 mg/kg added on to IFN-β, RRMS patients; type: in vivo, human; details: RRMS subgroup
Text: as §1
Patients aged 18-65 years were eligible to enter the ONWARD study if they fulfilled the following criteria. • a diagnosis of RRMS or SPMS with relapses (2005 McDonald criteria) • treatment with IFN-β for ≥48 consecutive weeks before screening, with ≥1 MS relapse during that period • clinical stability (other than relapses) during the 28 days before screening • an Expanded Disability Status Scale. […]

[3] = biological target: P-gp (Homo sapiens, UniProt P08183); details: in vitro
[4] = biological target: CYP1A2 (Homo sapiens, UniProt P05177)
[5] = biological target: CYP2B6 (Homo sapiens, UniProt P20813)
[6] = biological target: CYP2C9 (Homo sapiens, UniProt P11712)
[7] = biological target: CYP2E1 (Homo sapiens, UniProt P05181)
[8] = biological target: CYP3A4 (Homo sapiens, UniProt P08684)
[9] = clinical; details: human
[10] = clinical; details: human, cerebrospinal fluid / plasma
[11] = Cladribine pharmacokinetics following oral administration
[12] = tested on: lymphocytes; assay: Lymphocyte counts across clinical studies (pharmacodynamic effects)

Chain of P-gp (P08183 whole entry): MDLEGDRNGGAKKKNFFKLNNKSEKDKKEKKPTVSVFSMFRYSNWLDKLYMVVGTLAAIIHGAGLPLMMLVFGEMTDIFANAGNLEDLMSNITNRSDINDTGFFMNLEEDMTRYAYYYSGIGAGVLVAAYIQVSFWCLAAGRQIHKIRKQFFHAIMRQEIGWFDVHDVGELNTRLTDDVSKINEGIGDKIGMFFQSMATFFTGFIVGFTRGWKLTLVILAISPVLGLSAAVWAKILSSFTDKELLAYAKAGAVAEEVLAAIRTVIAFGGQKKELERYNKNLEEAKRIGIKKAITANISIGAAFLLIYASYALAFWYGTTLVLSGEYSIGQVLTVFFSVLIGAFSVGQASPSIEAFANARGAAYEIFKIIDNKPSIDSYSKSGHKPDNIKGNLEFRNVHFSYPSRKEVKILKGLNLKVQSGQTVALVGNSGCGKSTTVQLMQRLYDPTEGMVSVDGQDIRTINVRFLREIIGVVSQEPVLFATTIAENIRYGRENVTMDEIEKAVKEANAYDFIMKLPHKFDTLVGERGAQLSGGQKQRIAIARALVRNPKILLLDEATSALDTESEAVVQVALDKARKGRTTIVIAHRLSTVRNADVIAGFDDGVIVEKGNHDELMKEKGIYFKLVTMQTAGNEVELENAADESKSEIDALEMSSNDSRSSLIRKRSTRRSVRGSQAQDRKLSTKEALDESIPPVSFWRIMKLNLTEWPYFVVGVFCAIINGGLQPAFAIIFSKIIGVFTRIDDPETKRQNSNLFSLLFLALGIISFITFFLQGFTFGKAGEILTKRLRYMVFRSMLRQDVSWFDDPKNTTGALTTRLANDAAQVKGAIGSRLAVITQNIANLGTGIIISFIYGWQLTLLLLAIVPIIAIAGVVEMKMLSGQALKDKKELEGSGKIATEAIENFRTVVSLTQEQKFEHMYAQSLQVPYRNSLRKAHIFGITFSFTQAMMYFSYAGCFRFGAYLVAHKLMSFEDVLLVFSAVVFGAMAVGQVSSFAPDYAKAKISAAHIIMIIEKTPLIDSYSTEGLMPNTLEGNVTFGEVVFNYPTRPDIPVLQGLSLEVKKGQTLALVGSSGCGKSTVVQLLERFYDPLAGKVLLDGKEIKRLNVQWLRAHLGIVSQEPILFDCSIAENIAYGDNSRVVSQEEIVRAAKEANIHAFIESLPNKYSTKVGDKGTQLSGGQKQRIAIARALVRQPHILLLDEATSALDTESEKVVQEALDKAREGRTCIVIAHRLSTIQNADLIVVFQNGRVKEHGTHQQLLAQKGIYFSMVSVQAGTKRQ
Chain of CYP2E1 (P05181 whole entry): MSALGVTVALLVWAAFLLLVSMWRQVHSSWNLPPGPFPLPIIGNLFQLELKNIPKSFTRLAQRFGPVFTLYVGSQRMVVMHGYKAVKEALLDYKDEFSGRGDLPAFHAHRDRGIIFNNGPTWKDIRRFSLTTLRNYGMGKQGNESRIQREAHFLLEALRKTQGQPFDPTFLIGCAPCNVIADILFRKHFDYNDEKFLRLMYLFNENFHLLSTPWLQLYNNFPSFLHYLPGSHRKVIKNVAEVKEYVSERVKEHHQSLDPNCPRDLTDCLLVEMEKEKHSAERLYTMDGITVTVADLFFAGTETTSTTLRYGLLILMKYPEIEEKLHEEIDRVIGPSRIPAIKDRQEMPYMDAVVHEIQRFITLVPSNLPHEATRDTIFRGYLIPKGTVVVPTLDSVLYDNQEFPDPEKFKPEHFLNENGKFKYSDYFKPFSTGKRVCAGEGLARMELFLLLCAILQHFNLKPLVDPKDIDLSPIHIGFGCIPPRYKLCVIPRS
Chain of CYP3A4 (P08684 whole entry): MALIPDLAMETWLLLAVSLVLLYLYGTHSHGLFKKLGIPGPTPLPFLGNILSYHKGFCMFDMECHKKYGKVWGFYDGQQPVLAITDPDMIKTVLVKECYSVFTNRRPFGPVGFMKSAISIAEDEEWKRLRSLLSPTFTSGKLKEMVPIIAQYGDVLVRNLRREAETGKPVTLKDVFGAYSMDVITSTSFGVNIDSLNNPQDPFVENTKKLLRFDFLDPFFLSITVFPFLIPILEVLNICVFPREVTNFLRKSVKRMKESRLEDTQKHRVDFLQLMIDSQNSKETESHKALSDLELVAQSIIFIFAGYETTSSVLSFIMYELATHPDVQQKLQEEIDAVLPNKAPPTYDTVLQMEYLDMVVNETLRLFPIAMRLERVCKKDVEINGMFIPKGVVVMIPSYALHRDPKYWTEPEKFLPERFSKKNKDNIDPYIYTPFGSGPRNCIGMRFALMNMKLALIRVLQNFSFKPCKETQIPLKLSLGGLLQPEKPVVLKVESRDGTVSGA
Chain of CYP1A2 (P05177 whole entry): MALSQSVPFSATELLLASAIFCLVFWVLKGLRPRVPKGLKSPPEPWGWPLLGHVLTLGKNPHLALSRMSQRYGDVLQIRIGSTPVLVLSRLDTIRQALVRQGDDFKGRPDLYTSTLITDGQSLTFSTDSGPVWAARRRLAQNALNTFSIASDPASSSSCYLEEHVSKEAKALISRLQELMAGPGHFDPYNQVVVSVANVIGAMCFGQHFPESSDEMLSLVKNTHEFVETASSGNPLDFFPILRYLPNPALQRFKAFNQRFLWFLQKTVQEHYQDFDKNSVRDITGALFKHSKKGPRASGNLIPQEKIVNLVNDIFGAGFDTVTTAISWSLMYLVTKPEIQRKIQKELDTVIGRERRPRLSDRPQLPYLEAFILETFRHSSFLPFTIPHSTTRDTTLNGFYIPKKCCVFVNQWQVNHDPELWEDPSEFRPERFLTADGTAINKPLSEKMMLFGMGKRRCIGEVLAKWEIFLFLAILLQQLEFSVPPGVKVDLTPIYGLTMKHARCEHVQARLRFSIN
Chain of CYP2C9 (P11712 whole entry): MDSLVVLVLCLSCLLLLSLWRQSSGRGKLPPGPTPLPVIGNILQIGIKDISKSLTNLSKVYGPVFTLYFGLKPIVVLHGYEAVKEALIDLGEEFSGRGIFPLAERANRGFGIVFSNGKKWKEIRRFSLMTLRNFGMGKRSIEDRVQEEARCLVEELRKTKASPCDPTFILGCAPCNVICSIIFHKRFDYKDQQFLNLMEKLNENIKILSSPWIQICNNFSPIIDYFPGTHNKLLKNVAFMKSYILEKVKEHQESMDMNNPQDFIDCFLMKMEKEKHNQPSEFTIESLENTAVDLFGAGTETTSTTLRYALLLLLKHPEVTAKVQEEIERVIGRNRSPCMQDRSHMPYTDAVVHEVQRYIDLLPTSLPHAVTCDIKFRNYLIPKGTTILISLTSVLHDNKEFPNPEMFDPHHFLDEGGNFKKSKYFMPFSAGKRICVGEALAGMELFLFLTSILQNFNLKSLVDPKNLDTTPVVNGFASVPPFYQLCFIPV
Chain of CYP2B6 (P20813 whole entry): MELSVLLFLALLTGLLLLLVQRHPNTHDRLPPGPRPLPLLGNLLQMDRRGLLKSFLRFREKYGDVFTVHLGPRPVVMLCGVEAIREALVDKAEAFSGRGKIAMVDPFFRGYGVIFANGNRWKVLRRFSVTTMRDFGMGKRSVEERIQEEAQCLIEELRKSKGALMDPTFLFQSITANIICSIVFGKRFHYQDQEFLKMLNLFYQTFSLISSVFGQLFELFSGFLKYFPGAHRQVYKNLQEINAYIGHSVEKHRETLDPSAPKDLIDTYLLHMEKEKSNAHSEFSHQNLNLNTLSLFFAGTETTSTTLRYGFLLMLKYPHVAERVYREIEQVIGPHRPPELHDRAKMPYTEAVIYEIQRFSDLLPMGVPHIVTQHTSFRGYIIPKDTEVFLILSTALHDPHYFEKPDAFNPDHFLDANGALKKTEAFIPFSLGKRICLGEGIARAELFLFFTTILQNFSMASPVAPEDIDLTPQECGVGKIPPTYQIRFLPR

## Nc1nc(Cl)nc2c1ncn2[C@H]1C[C@H](O)[C@@H](CO)O1 [Cladribine, 2-chloro-2′deoxyadenosine]
[1]; SPMS subgroup
  effect on disability progression: could not be shown
[1]; SPMS, 3.5 mg/kg add-on to interferon-beta
  risk ratio of annualized relapse rate vs placebo: 0.11
[1]; SPMS, Cladribine 3.5 mg/kg + IFN-β
  annualized relapse rate: 0.03
[2]
  effect on disability progression: could not be shown
[3]
  P-gp related efflux: only minimally P-gp related
[4]
  potential to act as inhibitor of CYP1A2: does not show significant potential to act as inhibitor
[5]
  potential to act as inhibitor of CYP2B6: does not show significant potential to act as inhibitor
[6]
  potential to act as inhibitor of CYP2C9: does not show significant potential to act as inhibitor
[7]
  potential to act as inhibitor of CYP2E1: does not show significant potential to act as inhibitor
[8]
  potential to act as inhibitor of CYP3A4: does not show significant potential to act as inhibitor
[9]; in vivo
  Vd: 480 to 490 L
[9]; in vivo, po, 10 mg
  bioavailability: ~40%
[9]; plasma, po, 10 mg
  Cmax: 22 to 29 ng/mL
[10]
  Kp: ~0.25
[11]; in vivo, po
  reduction of Cmax with a high-fat meal (geometric mean): 29%
[11]; oral, fasted state
  median Tmax: 0.5 h
[11]; oral, high-fat meal
  AUC with a high-fat meal: unchanged
[11]; oral, with a high-fat meal
  median Tmax: 1.5 h
[12]; cumulative dose 3.5 mg/kg
  week from first dose at which median lymphocyte counts are back to the normal range: 84 week
[12]; oral Cladribine
  effect on CD19+ B cells and CD16+/CD56+ natural killer cells: reduces CD19+ B cells and CD16+/CD56+ natural killer cells
  effect on circulating CD4+ and CD8+ T cells: rapid reductions in circulating CD4+ and CD8+ T ceils
